# The campaign covered roughly 330,000 compounds. About 4,200 (1.3%) were called active. Inconclusive means that the source gave no clear call. Such entries were picked first, then a sample of the others. Calls come from the whole dose curve; as a rule, active = well fitted activation curve with a large enough effect; inconclusive = small, poorly fitted or top-dose-only effect; inactive = no such curve, though single readings can be large or run the other way. A potency beside an inconclusive call is a rough fit, not a confirmed value.
# Experiment: qHTS screen for small molecules that induce genotoxicity in human embryonic kidney (HEK293T) cells expressing luciferase-tagged ELG1; note: nearly all actives have a fitted effect of over 60% in size; for activity change, positive = activation: % of control where 0% means no effect
# Conditions: HEK293T ELG1-luciferase reporter, luminescence, 16 h; series mostly up to 46 µM; activity change, positive = activation: at the top concentration
# Method in brief: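 ELG1-luciferase HEK293T cells, 2,000/well; compound pinned in; 16 hr, 37 °C, 5% CO2; ONE-Glo, 30 min RT; luminescence on CCD imager.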
# Potency is the fitted concentration of half-maximal effect; tags give direction and shape of the fitted curve.
SMILES,"activity change, positive = activation",Potency
Cc1cc(C(=O)N2CCN(c3ncccc3C#N)CC2)no1,inactive: 3.88%,
CCSc1ncnc2c1sc1nc3c(cc12)COC(C)(C)C3,,"inconclusive: 2.06 µM [activator, full curve, poor fit]"
CCOC(=O)C1CCN(C(=O)c2cc3cc(C)ccc3[nH]2)CC1,,"inconclusive: 23.1 µM [activator, single point]"
S=C(NCCc1ccccc1)Nc1ccc(Br)cc1,inactive: 14%,
O=C(CNC(=O)c1sc2ccccc2c1Cl)NC1CC1,,"inconclusive: 20.6 µM [activator, partial curve]"
O=C(CCCn1c(=S)[nH]c2cc3c(cc2c1=O)OCO3)N1CCN(c2ccc(Cl)cc2)CC1,inactive: -4.08%,
CC(=O)NC(c1ccc(Cl)cc1Cl)c1ccc2cccnc2c1O (stereo not drawn),,"inconclusive: 23.1 µM [activator, single point]"
CCOc1ccc(Oc2ccc(NC(=O)[C@@H](NC(N)=O)[C@@H](C)CC)cc2)cc1,,"inconclusive: 23.1 µM [activator, partial curve, poor fit]"
CCn1c(COC(=O)CNC(=O)c2cc(OC)c(OC)c(OC)c2)nc2cc(S(=O)(=O)N(C)C)ccc21,,"inconclusive: 0.0073 µM [activator, full curve, poor fit]"
COC(=O)c1ccccc1-c1ccc(/C=C2\C(=O)N(c3ccccc3)N=C2c2ccccc2)o1,inactive: 0.436%,
O=C(Cc1cccs1)Nc1cccc(-c2nc3cc4ccccc4cc3[nH]2)c1,,"inconclusive: 1.84 µM [activator, partial curve, poor fit]"
O=C(Nc1ccc2c3c(cccc13)CC2)c1ccc(Br)o1,,"inconclusive: 11.2 µM [activator, partial curve, poor fit]"
C(=C\c1ccccc1)/C=N/Nc1nc2ccccc2s1,,"inconclusive: 5.17 µM [activator, partial curve]"
Cc1ccc(C)c(S(=O)(=O)N2CCN(C(=O)c3n[nH]c(=O)c4ccccc34)CC2)c1,inactive: -1.03%,
N#C/C(=C1\CCCN1)c1nc(-c2ccccc2)cs1,,"inconclusive: 23.1 µM [activator, partial curve, poor fit]"
COc1cccc(NC(=O)CN(C)CC(=O)Nc2ccc(Br)cc2)c1,inactive: -2.76%,
c1ccc2[nH]c(SCc3cn4ccccc4n3)nc2c1,,"inconclusive: 11.6 µM [activator, partial curve, poor fit]"
O=C(NCc1cccs1)c1cc(C2CC2)on1,,active: 23.1 µM
CCCCN(CC)CCNC(=O)c1cc2c(-c3ccc(Cl)cc3)nn(C)c2s1,inactive: 6.63%,
CCN(CC)CCN(Cc1cc2cc3c(cc2[nH]c1=O)OCCO3)C(=O)NC1CCCCC1,,"inconclusive: 18.4 µM [activator, single point]"
O=C1/C(=C/c2cccc(Cl)c2)CSc2sccc21,inactive: -1.79%,
Cc1ccccc1CNC(=O)Cc1ccccc1[N+](=O)[O-],,"inconclusive: 23.1 µM [activator, partial curve, poor fit]"
COCCCn1c(C)cc(C(=O)COC(=O)C23CC4CC(CC(O)(C4)C2)C3)c1C,,"inconclusive: 5.8 µM [activator, partial curve]"
COc1ccc(NC(=O)CCC(=O)Nc2ccc3nc(N4CCOCC4)cc(C)c3c2)c(OC)c1,,"inconclusive: 11.6 µM [activator, partial curve, poor fit]"
O=C(Nc1ccc(CN2CCOCC2)cc1)c1ccc(-c2cc(Cl)ccc2Cl)o1,inactive: -20.2%,

SMILES,"activity change, positive = activation",Potency
Cn1c(-c2ccccc2)cc2onc(-c3ccccc3)c2c1=O,,"inconclusive: 0.164 µM [activator, partial curve]"
O=C(c1cc(-c2ccc(Br)cc2)on1)N1CCCCCC1,,active: 16.4 µM
CCOC(=O)c1cc(-c2ccccc2)sc1NC(=O)c1ccc(OC)c(OC)c1,inactive: -1.67%,
CC/C(=N\NC(=O)c1ccc2c(c1)OCO2)c1ccccc1,,"inconclusive: 20.6 µM [activator, partial curve, poor fit]"
Fc1ccc(-c2nnc(NC3=NCCCCC3)o2)cc1,,"inconclusive: 0.461 µM [activator, partial curve, poor fit]"
CC(C)N1CCN(Cc2ccc(Sc3nncn3C)o2)CC1CCO (stereo not drawn),inactive: -2.3%,
Cc1ccn(-c2cccc(-n3ccc(C)n3)n2)n1,,"inconclusive: 18.4 µM [activator, partial curve]"
COc1cc(/C=C2\SC(c3ccc(C)cc3)=NC2=O)ccc1O,,"inconclusive: 7.31 µM [activator, partial curve, poor fit]"
O=C(N/N=C/c1ccc(O)cc1O)C(=O)N/N=C/c1ccc(O)cc1O,inactive: 1.72%,
O=C1CN(C(=O)c2ccccc2F)c2ccccc2N1,inactive: 0.957%,
COc1ccc(OCC(=O)N/N=C2\CCCCc3ccccc32)cc1,inactive: -1.96%,
CC(C)c1cc(C(=O)Nc2cc(Cl)ccc2O)no1,,"inconclusive: 2.59 µM [activator, full curve, poor fit]"
COc1ccc2c(c1)CCc1c(C(=O)NCCc3ccc(OC)c(OC)c3)noc1-2,inactive: 2.03%,
COc1cc(/C=C(\C#N)C(=O)Nc2cccc(C(=O)O)c2)ccc1OCc1ccc(C)cc1,,"inconclusive: 6.51 µM [activator, partial curve]"
Cc1cc(C(=O)Nc2ccc(Cl)cc2)c(C)n1Cc1cccs1,,active: 2.31 µM
CC(C)CC1NC(=O)N(CC(=O)c2ccc3c(c2)OCCO3)C1=O (stereo not drawn),,"inconclusive: 18.4 µM [activator, partial curve]"
CCOc1ccc(NC(=S)NC(=O)c2c(Cl)cnn2CC)c([N+](=O)[O-])c1,inactive: 1.57%,
C=CCNC(=O)c1cc2c(=O)n3ccccc3nc2s1,,"inconclusive: 9.2 µM [activator, partial curve]"
Oc1c(Cl)cc(Cl)cc1CNc1ccc(Br)cn1,,"inconclusive: 20.6 µM [activator, single point]"
O=C(Nc1ccccc1C(=O)O)c1ccc(NC(=O)C2CC2)cc1,inactive: -10.7%,
Cc1ccc(N=c2c([N+](=O)[O-])nn(-c3ccc(Cl)cc3)n2O)cc1C,inactive: -3.96%,
Cc1ccc(C)c(C(=O)CCC(=O)N2CCN(c3cccc(C(F)(F)F)c3)CC2)c1,inactive: -3.94%,
CCc1nnc(NS(=O)(=O)c2ccc(N/C=C\C(=O)c3ccc(F)cc3)cc2)s1,inactive: -0.0668%,
Cc1ccc(OCCCCN2CCCC(C)C2)c([N+](=O)[O-])c1 (stereo not drawn),inactive: -3.29%,
COc1ccc(OC)c2c(N3CC(C)OC(C)C3)cc(C(F)(F)F)nc12 (stereo not drawn),,"inconclusive: 16.4 µM [activator, partial curve, poor fit]"

SMILES,"activity change, positive = activation",Potency
Cc1ccc(C(=O)NC(=S)NCC2CCCO2)cc1 (stereo not drawn),,"inconclusive: 23.1 µM [activator, partial curve, poor fit]"
CCc1ccc(NC(=O)COc2ccc(/C=C(/C#N)c3nc4ccccc4[nH]3)cc2OC)cc1,,"inconclusive: 2.91 µM [activator, full curve, poor fit]"
O=[N+]([O-])c1nn(-c2ccccc2)[n+]([O-])c1N1CCN(c2ccccc2F)CC1,inactive: -11.1%,
Cn1c(/C(C#N)=C(\O)c2cccc(F)c2)nc2ccccc21,,"inconclusive: 23.1 µM [activator, partial curve, poor fit]"
Cc1ccccc1NC(=S)NNC(=O)c1csc2c1CCC(C)C2 (stereo not drawn),,"inconclusive: 1.78 µM [activator, partial curve, poor fit]"
Nc1nc(NC(=O)c2ccco2)nn1-c1ccccc1,,"inconclusive: 23.1 µM [activator, partial curve, poor fit]"
CCOC(=O)N/N=C/C(Cl)=C/c1ccccc1,,"inconclusive: 18.3 µM [activator, partial curve, poor fit]"
O=C(COC(=O)c1ccc(Cl)nc1)c1ccc2c(c1)OCCO2,,"inconclusive: 11.6 µM [activator, partial curve, poor fit]"
CCCc1nn(C)c(C(=O)Nc2cccc(CC)c2)c1Cl,inactive: 4.55%,
O=Cc1ccc2noc(-c3ccc(Cl)cc3)c2c1,,"inconclusive: 16.4 µM [activator, partial curve, poor fit]"
COC(=O)c1ccc(NC(=O)CSCc2ccccc2)cc1,,"inconclusive: 16.4 µM [activator, partial curve]"
Cc1cc(NC(=O)c2ccccc2)no1,,"inconclusive: 20.6 µM [activator, partial curve, poor fit]"
Cc1ccc2nc(C3CCCCC3)[nH]c2c1,,"inconclusive: 4.61 µM [activator, full curve]"
COc1ccc(-n2nc([N+](=O)[O-])c(=NCCC3=CCCCC3)n2O)cc1,,"inconclusive: 10.3 µM [activator, partial curve, poor fit]"
CCC(=O)Nc1cc(NC(=O)CSc2ncc(-c3ccc(F)cc3)n2Cc2ccco2)ccc1C,,active: 18.4 µM
COc1ccc(Cl)cc1C(=O)CSc1nnnn1C1CCCC1,inactive: 9.93%,
COc1ccc(C(=O)OCC(=O)c2ccc[nH]2)c(OC)c1,,"inconclusive: 10.3 µM [activator, partial curve]"
CC1CCC/C(=C(\C#N)c2nc(-c3cc4ccccc4oc3=O)cs2)C1 (stereo not drawn),,"inconclusive: 4.11 µM [activator, partial curve]"
COc1ccc(N=C2NC(=O)/C(=C/c3ccc(O)c(OC)c3)S2)cc1,inactive: 12.2%,
Cc1ccc(-c2noc(CSc3ccccc3)n2)cc1,,active: 7.31 µM
O=C(Nc1ccccc1)Nc1ccc(Br)c(Cl)c1,inactive: -8.82%,
O=C(/C=C/c1ccco1)Nc1ccccc1N1CCCC1,inactive: -1.27%,
CC(OC(=O)c1cc(=O)[nH]c2ccccc12)C(=O)NC1CCCC1 (stereo not drawn),inactive: 5.06%,

# Reference: PubChem BioAssay AID504466 (National Center for Advancing Translational Sciences (NCATS), 2011)
